{"source": "paper PMC10668032", "note": "This is one part of the list. At the low end of the ranking the order means little.", "data": [{"target": "SIX1-Q177R homeodomain (UniProt Q15475)", "assay": "universal protein binding microarray", "details": "Universal all-10-mer PBM (8x60K, AMADID 030236), 300 nM GST-tagged protein, Alexa Fluor 488 anti-GST; buffer, salt, pH and temperature not stated; high values mean tight binding; most listed sequences are background and not binding sites; double strand, one strand shown", "units": {"binding signal": "E-score"}, "values": [{"sequence": "GCAAGCGA", "binding signal": -0.149}, {"sequence": "AACGACGC", "binding signal": 0.0714}, {"sequence": "GGAAGGAC", "binding signal": -0.168}, {"sequence": "TCTCCGCA", "binding signal": -0.271}, {"sequence": "ACTTCCGC", "binding signal": -0.175}, {"sequence": "CCAGGTTA", "binding signal": 0.0783}, {"sequence": "TGACTGCA", "binding signal": -0.0771}, {"sequence": "ATGCTAAA", "binding signal": -0.131}, {"sequence": "ACCAAGTC", "binding signal": 0.0646}, {"sequence": "ACAAGTTC", "binding signal": -0.231}, {"sequence": "ATCATAGG", "binding signal": -0.164}, {"sequence": "ATATTTTG", "binding signal": -0.188}, {"sequence": "ACTCTTTC", "binding signal": -0.0864}, {"sequence": "GCTATAGC", "binding signal": -0.22}, {"sequence": "GTGTGCCA", "binding signal": 0.242}, {"sequence": "ATAGCGTC", "binding signal": -0.00797}, {"sequence": "GGTAAAGA", "binding signal": 0.118}, {"sequence": "GAAACCTA", "binding signal": -0.0838}, {"sequence": "GGGAACCC", "binding signal": 0.184}, {"sequence": "CAGATGTC", "binding signal": -0.175}, {"sequence": "CCAGTTGC", "binding signal": -0.0315}, {"sequence": "ACTATAGG", "binding signal": -0.0382}, {"sequence": "GCCTTTCC", "binding signal": -0.106}, {"sequence": "GGGCTGTA", "binding signal": -0.0971}, {"sequence": "GAGTACGA", "binding signal": 0.0959}, {"sequence": "CCATCTTC", "binding signal": -0.0692}, {"sequence": "ACCTACAG", "binding signal": 0.121}, {"sequence": "CCTATTTC", "binding signal": -0.000375}, {"sequence": "AAAGGTCA", "binding signal": -0.0971}, {"sequence": "AACGTTAA", "binding signal": -0.109}, {"sequence": "CTGGCGAA", "binding signal": -0.174}, {"sequence": "ATTACCGA", "binding signal": 0.0798}, {"sequence": "ATACCCGA", "binding signal": 0.241}, {"sequence": "ATCTACAA", "binding signal": -0.175}, {"sequence": "ACATTCAA", "binding signal": -0.191}, {"sequence": "CCGCTAGC", "binding signal": -0.264}, {"sequence": "ACAGTCAC", "binding signal": -0.197}, {"sequence": "GTTTACTA", "binding signal": 0.0676}, {"sequence": "ATCGGGCC", "binding signal": -0.0815}, {"sequence": "GGTGATAA", "binding signal": 0.102}, {"sequence": "GATAATTA", "binding signal": -0.164}, {"sequence": "GATTCTGA", "binding signal": -0.188}, {"sequence": "CACCAAAG", "binding signal": 0.308}, {"sequence": "AACCTCAG", "binding signal": -0.0991}, {"sequence": "CCGGTAGG", "binding signal": -0.0661}, {"sequence": "AATGTACC", "binding signal": -0.0285}, {"sequence": "CTTGCGAA", "binding signal": 0.0707}, {"sequence": "GTGAATAA", "binding signal": -0.124}, {"sequence": "CGAGATTA", "binding signal": -0.154}, {"sequence": "AGATGATG", "binding signal": -0.17}, {"sequence": "ACTTCCTC", "binding signal": -0.0321}, {"sequence": "ACGGGAGG", "binding signal": 0.00097}, {"sequence": "GTCACCGA", "binding signal": 0.175}, {"sequence": "AGACTCCG", "binding signal": -0.00135}, {"sequence": "GGGTCACA", "binding signal": 0.202}, {"sequence": "AACTCGGG", "binding signal": 0.108}, {"sequence": "GACGTTCA", "binding signal": -0.0855}, {"sequence": "CCGCGGCC", "binding signal": 0.0535}, {"sequence": "ATGCGGCG", "binding signal": -0.0426}, {"sequence": "ATCAATCA", "binding signal": -0.237}, {"sequence": "CAAGAAGC", "binding signal": -0.164}, {"sequence": "TCCCCCGA", "binding signal": 0.0669}, {"sequence": "ATAAGTTG", "binding signal": -0.151}, {"sequence": "ACTGGTCC", "binding signal": -0.0613}, {"sequence": "TCCAGCAA", "binding signal": -0.109}, {"sequence": "CTTTGCTC", "binding signal": -0.232}, {"sequence": "GTAGGCAC", "binding signal": 0.0564}, {"sequence": "CTTATTGA", "binding signal": -0.102}, {"sequence": "ACCGTCCC", "binding signal": 0.00799}, {"sequence": "ACCAAGCT", "binding signal": -0.0625}, {"sequence": "ATTGACTC", "binding signal": 0.162}, {"sequence": "GTGGAGCA", "binding signal": -0.012}, {"sequence": "AACGTGAT", "binding signal": -0.0835}, {"sequence": "ACCGAGCT", "binding signal": -0.0331}, {"sequence": "AGGATCCG", "binding signal": 0.0326}, {"sequence": "GATGGGAA", "binding signal": 0.0399}, {"sequence": "ACCATAAT", "binding signal": -0.0891}, {"sequence": "CTTGCGCA", "binding signal": 0.0479}, {"sequence": "AGGAACGC", "binding signal": -0.207}, {"sequence": "AATTAGCA", "binding signal": -0.0799}, {"sequence": "ACACGCCT", "binding signal": 0.416}, {"sequence": "ACGTACGG", "binding signal": 0.048}, {"sequence": "ATCACCCC", "binding signal": 0.204}, {"sequence": "GGCTAACA", "binding signal": 0.0766}, {"sequence": "CCCTCTCG", "binding signal": 0.0163}, {"sequence": "GGCAGTGA", "binding signal": -0.0498}]}]}
